Experimental findings from the supplement of paper PMC4604168 (melanoma cell lines) are described below.

This is one part of the list. Single values are uncertain, as repeats are few or missing.
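Further: cell number obtained by counting DAPI-stained nuclei in high-throughput microscope images with image analysis software, screen run in 1,536-well plates.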

The test relates to COLO800. Nature of the test: cell count relative to DMSO control; melanoma cells; higher = more viable cells. The settings on record: library dose: low library concentration; 72 h.
`N#CC[C@H](C1CCCC1)n1cc(-c2ncnc3[nH]ccc23)cn1` [ruxolitinib] + CCc1ccc(CCOc2ccc(CC3SC(=O)NC3=O)cc2)nc1 [pioglitazone] (first compound 1 µM, partner dose 2 µM) had a cell count of 180%. In turn, `N#CC[C@H](C1CCCC1)n1cc(-c2ncnc3[nH]ccc23)cn1` [ruxolitinib] + Cn1cc(/C=C2\C(=O)Nc3cccnc32)c2ccccc21 [GW441756] (first compound 1 µM, partner dose 0.4 µM) returned a cell count of 187%. Regarding `CC[C@]1(O)C[C@H]2CN(CCc3c([nH]c4ccccc34)[C@@](C(=O)OC)(c3cc4c(cc3OC)N(C=O)[C@H]3[C@@](O)(C(=O)OC)[C@H](OC(C)=O)[C@]5(CC)C=CCN6CC[C@]43[C@@H]65)C2)C1` [vincristine] + COc1cc2c(Oc3ccc4[nH]c(C)cc4c3F)ncnc2cc1OCCCN1CCCC1 [cediranib] (first compound 0.0001 µM, partner dose 0.4 µM), the cell count turned out to be 64.4%.

For `Cc1cc(Nc2cc(N3CCN(C)CC3)nc(Sc3ccc(NC(=O)C4CC4)cc3)n2)n[nH]1` [Tozasertib] + CC1(C)NC(=O)N(c2ccc([N+](=O)[O-])c(C(F)(F)F)c2)C1=O [nilutamide] (first compound 0.006 µM, partner dose 1 µM), the cell count came to 74.4%. For `N#CC[C@H](C1CCCC1)n1cc(-c2ncnc3[nH]ccc23)cn1` [ruxolitinib] + COc1ccc(COc2ccc(Cc3cnc(N)nc3N)cc2OC)cc1 [GW2580] (first compound 1 µM, partner dose 1 µM), the cell count was found to be 166%. Compound `N#CC[C@H](C1CCCC1)n1cc(-c2ncnc3[nH]ccc23)cn1` [ruxolitinib] + OCCn1cc(-c2cnc3nnn(Cc4ccc5ncccc5c4)c3n2)cn1 [PF04217903] (first compound 1 µM, partner dose 1 µM) came in with a cell count of 214%. The result for `N#CC[C@H](C1CCCC1)n1cc(-c2ncnc3[nH]ccc23)cn1` [ruxolitinib] + NCC(=O)Nc1ccc(-n2nc(C(F)(F)F)cc2-c2ccc3c(ccc4ccccc43)c2)cc1 [OSU03012] (first compound 1 µM, partner dose 1 µM) reads 115%; that for `N#CC[C@H](C1CCCC1)n1cc(-c2ncnc3[nH]ccc23)cn1` [ruxolitinib] + O=C(O)c1ccc(-c2c[nH]c3ncc(-c4ccccc4)cc23)cc1C1CCCC1 [GSK650394] (first compound 1 µM, partner dose 0.16 µM), 81.7%. `N#CC[C@H](C1CCCC1)n1cc(-c2ncnc3[nH]ccc23)cn1` [ruxolitinib] + N#Cc1c(O)c2c(-c3ccc(-c4ccccc4O)cc3)csc2[nH]c1=O [A769662] (first compound 1 µM, partner dose 2 µM) registered a cell count of 216%. Turning to `N#CC[C@H](C1CCCC1)n1cc(-c2ncnc3[nH]ccc23)cn1` [ruxolitinib] + CN(C)S(=O)(=O)c1ccc2c(c1)/C(=C/c1cc3c([nH]1)CCCC3)C(=O)N2 [SU6656] (first compound 1 µM, partner dose 0.4 µM), the cell count was determined as 151%. In turn, `Cc1cc(Nc2cc(N3CCN(C)CC3)nc(Sc3ccc(NC(=O)C4CC4)cc3)n2)n[nH]1` [Tozasertib] + Cc1cc(N2CCOCC2)cc2[nH]c(-c3c(NC[C@@H](O)c4cccc(Cl)c4)cc[nH]c3=O)nc12 [BMS536924] (first compound 0.006 µM, partner dose 0.2 µM) had a cell count of 53.3%. For `Cc1cc(Nc2cc(N3CCN(C)CC3)nc(Sc3ccc(NC(=O)C4CC4)cc3)n2)n[nH]1` [Tozasertib] + COc1ccc2c(c1)CCC1C2CCC2(C)C(NCCCCCCN3C(=O)C=CC3=O)CCC12 [U73122] (first compound 0.006 µM, partner dose 0.4 µM), the cell count came to 77%. As for `CC[C@]1(O)C[C@H]2CN(CCc3c([nH]c4ccccc34)[C@@](C(=O)OC)(c3cc4c(cc3OC)N(C=O)[C@H]3[C@@](O)(C(=O)OC)[C@H](OC(C)=O)[C@]5(CC)C=CCN6CC[C@]43[C@@H]65)C2)C1` [vincristine] + O=C1NC(=O)/C(=C/c2ccc(-c3ccc(F)cc3O)o2)S1 [AS252424] (first compound 0.0001 µM, partner dose 1 µM), the cell count stood at 134%. As to `Cc1cc(Nc2cc(N3CCN(C)CC3)nc(Sc3ccc(NC(=O)C4CC4)cc3)n2)n[nH]1` [Tozasertib] + O=C(Nc1ccccc1)c1cc([N+](=O)[O-])ccc1Cl [GW9662] (first compound 0.006 µM, partner dose 2 µM), the cell count came to 119%.
